“Also recorded” adds a separate entry of the source.
Tests used:
[1] = test system: NanoLuc-TGA, TAA or TAG; assay: Stop codon specificity, NanoLuc reporter plasmids containing TGA, TAA or TAG nonsense codons; format: cell-based, human; conditions: transiently transfected HEK293 cells; listed as ACE-tRNA^Gly
[2] = test system: NLuc-UGA; conditions: gentamicin 40 uM, G418 140 or 150 uM, 24 or 48 hr, listed as ACE-tRNA^Gly
Experimental: FIGS. 32A-32D. ACE-tRNAs are more efficient than aminoglycoside PTC suppression.
Generation of stable NLuc reporter cell lines. […] CO2-controlled (5%) cell incubator for 48 hr. […] . […] CO2 controlled (5%) cell culture incubator.

B1: Glychr19.trna2: top performing glycine ACE-tRNA UGA, SEQ ID NO: 53 (nucleic acid)
chain: GCGUUGGUGGUAUAGUGGUUAGCAUAGCUGCCUUCAAAGCAGUUGACCCGGGUUCGAUUCCCGGCCAACGCA
modifications: chemistry not given here
B1 was tested, and the “stop codon selectivity (UGA over UAA and UAG)” value [1] was “retained selectivity for the UGA stop codon, over UAA and UAG” and the “PTC suppression compared with gentamicin and G418” value [2] was “outperformed the conventional small molecule suppressors gentamicin (40 μM) and G418 (140 μM); also recorded: outperforms both gentamicin (40 uM) and G418 (140 uM)”.

— US12559749B2, “Methods of rescuing stop codons via genetic reassignment with ACE-tRNA” (UNIVERSITY OF IOWA RESEARCH FOUNDATION, priority 2017, dated 2026)
